In PubChem BioAssay AID1345082 (National Center for Advancing Translational Sciences (NCATS), 2018):
Among all 94,000 compounds or so, about 4,000 (4.3%) were called active. The inconclusive results got no clear call from the source; some entries with a clear call stand among them for comparison. The call rests on the fitted dose curve; in most records, active means well fitted inhibition curve with a large enough effect; inconclusive means small, poorly fitted or top-dose-only effect; inactive means no such curve, though single readings can be large or run the other way. A potency beside an inconclusive call is a rough fit, not a confirmed value.

Experiment: Cytotoxic Profiling in NIH 3T3 Cell Line of Diverse Libraries Using Quantitative High-Throughput Screening; further: nearly all actives have a fitted effect of over 55% in size
Conditions: NIH 3T3 viability, CellTiter-Glo ATP luminescence, 48-72 h; activity change, negative = cytotoxicity: at 96.7 µM (top of the series) unless noted; series mostly up to 96.7 µM
Method in brief: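 Viability of NIH 3T3 cells after 48 or 72 hr compound treatment at 37 °C was assessed by CellTiter-Glo, with luminescence imaged following a 10 min room-temperature step.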
On the % scale 0 is the no-effect control and ±100 the full control effect; potency means the concentration at half of the fitted maximal effect; tags describe the fitted curve by direction and shape.

With `O=C(C1CCN(c2nc3ncccc3o2)CC1)N1CCCC1` as the compound, how does the “outcome” value read?
Its value is “inactive [at 138 µM]”.

With `COc1ccc(F)cc1-c1cccc(C(=O)NCCN[S+](=O)([O-])c2ccccc2)c1` as the compound, how does the Potency read?
Its Potency is inconclusive: 50.1 µM [inhibitor, partial curve, poor fit].

Which Potency does the source give for `O=C1NC[C@@H](CCC(=O)N2CCCC2)N2C[C@@H](NCc3ccc(F)cc3)C[C@@H]12` here?
The Potency was inconclusive: 126 µM [inhibitor, single point].

For `COc1ccc2c(c1)CCc1c-2n[nH]c1C(=O)N1CCc2nc3cc[nH]n3c(=O)c2C1`, which Potency is on record?
The Potency was inconclusive: 31.6 µM [inhibitor, full curve, poor fit].

Which Potency does the source give for `Cc1cc(N2CCC(c3[nH]ncc3Cc3ccccc3)CC2)nc(N)n1` here?
Its Potency is inconclusive: 44.7 µM [inhibitor, partial curve, poor fit].

With `Cn1ccnc1CN1CCOc2cc([S+](=O)([O-])Nc3nncs3)ccc2C1` as the compound, how does the Potency read?
Its Potency is inconclusive: 50.1 µM [inhibitor, partial curve, poor fit].

With `Cc1noc2c(NCc3cccnc3)cc(-c3cccc(C(F)(F)F)c3)nc12` as the compound, how does the Potency read?
The Potency was active: 79.4 µM.

Which Potency does the source give for `O=C(Cn1ccn2nc(-c3ccccc3)c(CO)c2c1=O)NCCCc1ccccc1` here?
The Potency was inconclusive: 56.2 µM [inhibitor, partial curve, poor fit].

With `Cc1noc(C)c1CN1CCc2c(n(Cc3cccnc3)n(CCc3ccccc3)c2=O)C1` as the compound, how does the Potency read?
Its Potency is inconclusive: 56.2 µM [inhibitor, partial curve, poor fit].

For `CC1=Nc2cc(C(=O)NCc3ccc(C)cc3)ccc2Sc2ccc(Cl)cc21`, which Potency is on record?
The Potency was inconclusive: 35.5 µM [inhibitor, partial curve].

With `O=C(Cn1ccn2nc3c(c2c1=O)CCCC3)NCCC1=CCCCC1` as the compound, how does the “activity change, negative = cytotoxicity” value read?
The value was inactive: -6.8%.

With `O=C(c1c[nH]c2ccccc12)N1CCC2(COc3ccncc3S(=O)(=O)N2)C1` (centres undefined) as the compound, how does the “activity change, negative = cytotoxicity” value read?
The value was inactive: -4.03%.

Which “activity change, negative = cytotoxicity” value does the source give for `O=C(C1CCCN(c2nc3ncccc3o2)C1)N1CCCC1` (centres undefined) here?
The value was inactive: -1.86% [at 138 µM].

For `c1cncc(Nc2cc3c(cn2)CN(Cc2c[nH]c4ccccc24)CCN3)c1`, which Potency is on record?
The Potency was inconclusive: 35.5 µM [inhibitor, partial curve, poor fit].

Which “activity change, negative = cytotoxicity” value does the source give for `CO[C@H]1CN(C(C)C)[C@H]1C1CCN(C(=O)C2(c3ccccc3)CC2)CC1` here?
Its value is inactive: -1.38%.

For `CC1(C)CC1(C(=O)N1CCc2c(nc(N)[nH]c2=O)C1)c1cccs1` (centres undefined), which “activity change, negative = cytotoxicity” value is on record?
The value was inactive: 1.68%.

Which Potency does the source give for `Cc1cc(C(=O)NC(C)c2cnc(N3CCCCCCC3)nc2C)n[nH]1` (centres undefined) here?
Its Potency is inconclusive: 17.8 µM [inhibitor, full curve].

For `Cc1ccc(N2CC(c3noc(-c4ccccc4C)n3)CC2=O)cc1` (centres undefined), which Potency is on record?
Its Potency is inconclusive: 56.2 µM [inhibitor, partial curve, poor fit].

Which Potency does the source give for `O=C(NCCc1ccc(F)cc1)C1CCN(c2nccc(Nc3ccccc3F)n2)CC1` here?
The Potency was inconclusive: 50.1 µM [inhibitor, partial curve, poor fit].

For `COCC1CN(C)CC12CCN(Cc1cccc(OC)c1OC)CC2` (centres undefined), which “activity change, negative = cytotoxicity” value is on record?
Its value is inactive: -16%.

Which Potency does the source give for `CCC(=O)C(=O)N1CCC2(CCCN(Cc3ccc(C(C)C)cc3)C2=O)C1` (centres undefined) here?
Its Potency is inconclusive: 56.2 µM [inhibitor, partial curve, poor fit].

For `Cc1nn2c(c1-c1cccnc1N1CCOCC1)N(C(=O)c1ccc(Oc3ccccc3)cc1)CCC2`, which “activity change, negative = cytotoxicity” value is on record?
Its value is inactive: -30.2%.

For `COCCn1nc2n(c1=O)CCN(C(=O)c1ccc(Br)o1)CC2`, which Potency is on record?
The Potency was inconclusive: 63.1 µM [inhibitor, partial curve, poor fit].

With `CC(C)C1CN(Cc2cscn2)CCC(=O)N1Cc1ccc(F)cc1` (centres undefined) as the compound, how does the Potency read?
The Potency was inconclusive: 79.4 µM [inhibitor, partial curve, poor fit].

For `OCc1n[nH]c2c1CN(Cc1cccc(OCC(O)CN3CCOCC3)c1)CC2` (centres undefined), which Potency is on record?
The Potency was inconclusive: 56.2 µM [inhibitor, partial curve, poor fit].

For `Cc1noc(-c2ccc(C(C)(C)C)cc2)c1C(=O)NCc1ccc(Cl)cc1`, which Potency is on record?
Its Potency is inconclusive: 50.1 µM [inhibitor, partial curve, poor fit].

For `CC(C)C[C@@H]1N[C@H](C(=O)N2CCOCC2)Cc2cn(CC3CC3)c3cccc1c23`, which Potency is on record?
Its Potency is inconclusive: 89.1 µM [inhibitor, partial curve, poor fit].

Which Potency does the source give for `CC1=Nc2cc(C(=O)NCCCN(C)C)ccc2Sc2ccc(F)cc21` here?
Its Potency is inconclusive: 50.1 µM [inhibitor, partial curve, poor fit].

With `CCCCCC(=O)Nc1nc2c(s1)C[C@@H]1[C@](C)(CO)[C@H](O)CC[C@@]1(C)[C@@H]2CC(=O)NC1CCCCC1` as the compound, how does the Potency read?
Its Potency is inconclusive: 44.7 µM [inhibitor, partial curve, poor fit].

Which Potency does the source give for `COc1ccc(CNC2(Cc3cc(COc4ccccc4)on3)COC2)cc1` here?
The Potency was inconclusive: 89.1 µM [inhibitor, partial curve].

Which Potency does the source give for `Cc1ccc(-c2ccccc2CN)c(C)c1` here?
The Potency was active: 100 µM.

For `COc1ccc(OC)c(NC(=O)Cn2c(-c3cccc(Cl)c3)nc(C)c(CCO)c2=O)c1`, which Potency is on record?
The Potency was inconclusive: 56.2 µM [inhibitor, partial curve, poor fit].

With `C#CCNC(=O)c1nc(-c2ccc(F)cc2)c2ccccn12` as the compound, how does the Potency read?
The Potency was inconclusive: 44.7 µM [inhibitor, partial curve, poor fit].

With `COCCn1c(=O)c(C(=O)N2CCN(C(=O)C3CCCC3)CC2)nc2cccnc21` as the compound, how does the “activity change, negative = cytotoxicity” value read?
Its value is inactive: -7.59%.

For `CCOCCCNC(=O)N1CCCCCC1c1nc(-c2ccncc2)no1` (centres undefined), which Potency is on record?
Its Potency is inconclusive: 56.2 µM [inhibitor, partial curve, poor fit].

Which Potency does the source give for `O=C(Nc1ccc(Cl)cc1)NC1CCN(C(=O)c2ccc(-c3cccs3)cc2)CC1` here?
The Potency was inconclusive: 6.31 µM [inhibitor, full curve, poor fit].

Which “activity change, negative = cytotoxicity” value does the source give for `COCCc1nncn1C1CCN(S(=O)(=O)c2ccc(C(F)(F)F)cc2)CC1` here?
The value was inactive: -14.2%.

For `O=C1NC2(CCCN(C(=O)Cc3ccccc3)C2)COc2ccccc21` (centres undefined), which Potency is on record?
The Potency was inconclusive: 50.1 µM [inhibitor, partial curve, poor fit].

For `Cc1cc(=O)n(CC(=O)Nc2ccc(C)c(C)c2)c(N2CCc3ccccc3C2)n1`, which “activity change, negative = cytotoxicity” value is on record?
The value was inactive: -1.76%.

For `CN(Cc1cc(-c2ccccc2)n[nH]1)C(=O)c1cn(Cc2ccc(F)cc2Cl)nn1`, which Potency is on record?
Its Potency is inconclusive: 79.4 µM [inhibitor, partial curve, poor fit].

With `CNC(=O)c1cc(C2CC2)nc2c1c(C1CCCN(C(=O)c3ccccc3)C1)nn2C` (centres undefined) as the compound, how does the Potency read?
The Potency was inconclusive: 50.1 µM [inhibitor, partial curve, poor fit].

Which “activity change, negative = cytotoxicity” value does the source give for `O=C(NCC1CC1)C1CCCN1C(=O)c1cccc(-c2ccccn2)c1` (centres undefined) here?
Its value is inactive: -7.35%.

For `O=C(NC1CCCC1)C1c2ccccc2C(=O)N(Cc2ccccc2)C12CCCC2` (centres undefined), which Potency is on record?
The Potency was inconclusive: 44.7 µM [inhibitor, partial curve, poor fit].

Which Potency does the source give for `O=[S+]([O-])(CCC(F)(F)F)N1CCN(Cc2ccccc2-c2cccnc2)CC1` here?
The Potency was inconclusive: 28.2 µM [inhibitor, partial curve, poor fit].

For `Cc1ccc(NC(=O)N2CCC[C@H]2c2nc(-c3ccc(F)cc3)n[nH]2)cc1C`, which Potency is on record?
The Potency was active: 28.2 µM.

With `Cc1ccc(C(=O)N2[C@@H]3CC[C@H]2CC(NC(=O)c2ccncc2)C3)cc1` (some centres undefined) as the compound, how does the “activity change, negative = cytotoxicity” value read?
Its value is inactive: -1.77%.

Which Potency does the source give for `c1cc(-c2ccnc3nc(C4CCCCC4)nn23)ccn1` here?
The Potency was inconclusive: 50.1 µM [inhibitor, partial curve, poor fit].

With `CCOc1ccccc1C1NC(=O)N(CC(=O)Nc2ccccc2)C2=C1C(=O)OC2` (centres undefined) as the compound, how does the “activity change, negative = cytotoxicity” value read?
The value was inactive: -14.1%.

For `Cc1ccc(CCN2CCCC23Cc2ccccc2CNC3=O)cc1` (centres undefined), which Potency is on record?
Its Potency is inconclusive: 50.1 µM [inhibitor, partial curve, poor fit].

For `Cc1ccc(OCC(=O)N2CCOc3ccc(CN4CCc5ccccc5C4)cc3C2)cc1`, which Potency is on record?
The Potency was active: 39.8 µM.

With `Cc1n[nH]c(C)c1-c1ccc(CN(C)C)cc1O` as the compound, how does the “outcome” value read?
The value was “inactive”.

For `O=C(Nc1cccnc1)[C@H]1CN(Cc2ccccc2)C[C@H]1C(=O)O`, which “activity change, negative = cytotoxicity” value is on record?
Its value is inactive: -26.6%.

With `Cc1noc(-c2cn(C3CCCN(C(=O)c4ccc(F)cc4)C3)nn2)n1` (centres undefined) as the compound, how does the “activity change, negative = cytotoxicity” value read?
The value was inactive: -11.9%.

Which Potency does the source give for `Cc1nc2c(c(-c3ccc(Cl)cc3)n1)CCN(C(=O)c1cccc(Cl)c1)CC2` here?
Its Potency is inconclusive: 50.1 µM [inhibitor, partial curve, poor fit].

With `OC(c1nc(Nc2ccc(Cl)cc2)n[nH]1)C1CC1` (centres undefined) as the compound, how does the Potency read?
The Potency was inconclusive: 112 µM [inhibitor, partial curve].

For `O=C(c1ccccc1F)N1CCC2(CC1)CCN(Cc1cccs1)c1ccccc1O2`, which Potency is on record?
Its Potency is inconclusive: 39.8 µM [inhibitor, partial curve].

For `O=c1c2c(n(Cc3ccccc3)n1-c1ccccc1)CN(Cc1ccn[nH]1)CC2`, which Potency is on record?
The Potency was active: 89.1 µM.

For `Cc1ccc(-c2ccc3nnc(CNC(=O)c4cccc5[nH]ccc45)n3n2)cc1`, which Potency is on record?
Its Potency is inconclusive: 8.91 µM [inhibitor, full curve, poor fit].

With `CN1Cc2cccn2CC1CNC(=O)c1ccnn1C` (centres undefined) as the compound, how does the “activity change, negative = cytotoxicity” value read?
Its value is inactive: -7.02%.

With `N#Cc1ccc(C(=O)N2CCN(C(=O)c3nnn4c3COC(c3ccc(F)cc3)C4)CC2)cc1` (centres undefined) as the compound, how does the Potency read?
Its Potency is inconclusive: 50.1 µM [inhibitor, partial curve, poor fit].

With `Cc1ccc(C)c(C(=O)N2CCc3[nH]nc(C(=O)NCCCc4ccccc4)c3C2)c1` as the compound, how does the Potency read?
The Potency was inconclusive: 44.7 µM [inhibitor, partial curve, poor fit].

For `Cn1ccc2c(C(=O)NCc3cccnc3)nc(-c3ccccc3C#N)cc21`, which Potency is on record?
Its Potency is active: 25.1 µM.

Which Potency does the source give for `Cc1ccc(C)c(NC(=O)N2CCC(Oc3ncccc3C(=O)N3CCCCC3)C2)c1` (centres undefined) here?
The Potency was inconclusive: 70.8 µM [inhibitor, single point].

For `CC(C)c1noc(-c2cccn3c(CNC(=O)c4ccc(C(C)(C)C)cc4)nnc23)n1`, which Potency is on record?
Its Potency is inconclusive: 35.5 µM [inhibitor, partial curve, poor fit].
